Laboratory results reported in PubChem BioAssay AID180 (DTP/NCI, 2004).
The source holds more than one record for some entries. This list holds those alone. The source may hold further records. The records of an entry are repeated measurements across runs, samples, wells, individuals or studies. Signs of the kind (2×) say how often a value occurs here.

Test system: BDF1 mice, Adenocarcinoma 755 s.c., tumor weight T/C
Experiment: NCI In Vivo Anticancer Drug Screen. Data for tumor model Adenocarcinoma 755 (subcutaneous) in B6D2F1 (BDF1) mice
Conditions: endpoint: mean tumor weight, higher = larger tumour
Summary of the method: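 Transplantable tumor implanted; mice dosed with compound or vehicle; survival or tumor size recorded; ratio of treated to vehicle control reported.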

In the case of `CNC=O`, the T/C (dose: 46.83 mg/kg/injection, schedule: Q01DX011 (ip), vehicle: carboxymethylcellulose (CMC)) is reported as 83 % of control and 124 % of control and the T/C (dose: 171.5 mg/kg/injection, schedule: Q01DX011 (ip), vehicle: carboxymethylcellulose (CMC)) is reported as 45 % of control and 105 % of control.

With `CC(C)Cn1cnc2c(SCc3ccc(Cl)cc3Cl)nc(N)nc21` the T/C (dose: 25.0 mg/kg/injection, schedule: Q01DX011 (ip), vehicle: other) was 41 % of control and 79 % of control, the T/C (dose: 50.0 mg/kg/injection, schedule: Q01DX011 (ip), vehicle: other) was 30 % of control and 80 % of control and the T/C (dose: 100.0 mg/kg/injection, schedule: Q01DX011 (ip), vehicle: other) was 12 % of control and 60 % of control.

In the case of `COc1ccc(C[n+]2cc([O-])on2)cc1`, the T/C (dose: 3.12 mg/kg/injection, schedule: Q01DX011 (ip), vehicle: carboxymethylcellulose (CMC)) is reported as 29 % of control and 60 % of control.

`COc1ccccc1NC(=O)CSC(N)=O` was tested, and the T/C (dose: 100.0 mg/kg/injection, schedule: Q01DX011 (ip), vehicle: methylcellulose (MC)) was 63 % of control and 89 % of control, the T/C (dose: 200.0 mg/kg/injection, schedule: Q01DX011 (ip), vehicle: methylcellulose (MC)) was 38 % of control and 81 % of control and the T/C (dose: 400.0 mg/kg/injection, schedule: Q01DX011 (ip), vehicle: methylcellulose (MC)) was 22 % of control and 49 % of control.

With `Cc1nc2nc(N)nc(N)c2nc1C` the T/C (dose: 25.25 mg/kg/injection, schedule: Q01DX011 (ip), vehicle: carboxymethylcellulose (CMC)) was 34 % of control, 89 % of control, 109 % of control, the T/C (dose: 31.25 mg/kg/injection, schedule: Q01DX011 (ip), vehicle: carboxymethylcellulose (CMC)) was 119 % of control and 158 % of control and the T/C (dose: 50.5 mg/kg/injection, schedule: Q01DX011 (ip), vehicle: carboxymethylcellulose (CMC)) was 58 % of control and 90 % of control. The T/C (dose: 101.0 mg/kg/injection, schedule: Q01DX011 (ip), vehicle: carboxymethylcellulose (CMC)) was 45 % of control and 72 % of control.

In the case of `Cc1ccc(C(=O)[O][Hg][CH2]C2COC([CH2][Hg][O]C(=O)c3ccc(C)cc3)CO2)cc1` (stereo unspecified), the T/C (dose: 12.5 mg/kg/injection, schedule: Q01DX011 (ip), vehicle: methylcellulose (MC)) is reported as 66 % of control (2×) and 92 % of control.

For `C[C@H]1C[C@H]2[C@@H]3CC[C@](O)(C(=O)CF)[C@@]3(C)C[C@H](O)[C@]2(F)[C@@]2(C)C=CC(=O)C=C12`, the T/C (dose: 2.5 mg/kg/injection, schedule: Q01DX011 (sc), vehicle: steriod suspending solution) was 43 % of control and 79 % of control and the T/C (dose: 5.0 mg/kg/injection, schedule: Q01DX011 (sc), vehicle: steriod suspending solution) was 13 % of control and 55 % of control.

For `Nc1nc(=S)c2ncn(C3OC(COC(=O)c4ccc(Cl)cc4)C(OC(=O)c4ccc(Cl)cc4)C3OC(=O)c3ccc(Cl)cc3)c2[nH]1` (stereo unspecified), the T/C (dose: 7.0 mg/kg/injection, schedule: Q01DX011 (ip), vehicle: carboxymethylcellulose (CMC)) was 9 % of control and 45 % of control.

In the case of `C[C@@H]1C[C@H]2[C@@H]3CCC4=CC(=O)C=C[C@]4(C)[C@@]3(F)[C@@H](O)C[C@]2(C)[C@@]1(O)C(=O)CO`, the T/C (dose: 1.75 mg/kg/injection, schedule: Q01DX011 (sc), vehicle: steriod suspending solution) is reported as 34 % of control, 63 % of control, 77 % of control and the T/C (dose: 3.5 mg/kg/injection, schedule: Q01DX011 (sc), vehicle: steriod suspending solution) is reported as 21 % of control, 32 % of control, 55 % of control.

With `CCCSc1ncnc2nc[nH]c12` the T/C (dose: 50.0 mg/kg/injection, schedule: Q01DX001 (ip), vehicle: alcohol) was 43 % of control and 122 % of control.

For `Nc1nc(N)c(N=O)c(Nc2ccc(Cl)c(Cl)c2)n1`, the T/C (dose: 28.0 mg/kg/injection, schedule: Q01DX011 (ip), vehicle: carboxymethylcellulose (CMC)) was 38 % of control and 72 % of control.

With `C=CC(COC(C)=O)N1CC1` (stereo unspecified) the T/C (dose: 7.5 mg/kg/injection, schedule: Q01DX011 (ip), vehicle: saline) was 36 % of control and 74 % of control, the T/C (dose: 15.0 mg/kg/injection, schedule: Q01DX011 (ip), vehicle: saline) was 49 % of control and 119 % of control and the T/C (dose: 30.0 mg/kg/injection, schedule: Q01DX011 (ip), vehicle: saline) was 18 % of control and 58 % of control.

For `CN(C)c1nc(N)nc(Nc2ccc(Br)cc2)c1N=O`, the T/C (dose: 50.0 mg/kg/injection, schedule: Q01DX011 (ip), vehicle: carboxymethylcellulose (CMC)) was 26 % of control, 37 % of control, 92 % of control.

For `Nc1nc(SCc2ccccc2)c2[nH]cnc2n1`, the T/C (dose: 14.0 mg/kg/injection, schedule: Q01DX001 (ip), vehicle: carboxymethylcellulose (CMC)) was 17 % of control, 35 % of control, 47 % of control.
